Out of some 340,000 compounds screened, about 6,900 (2%) were called active. No stated cut-off is given here; in the data, active means inhibition above about 30%; inactive means below that, where a call was filed. The list shows a part of the results, in another mix than the full data. Where no call is shown, the source filed none. Where a structure was tested more than once in an assay, its records may differ in their call.

UniProt P14416, sequence (P14416 whole entry, looked up): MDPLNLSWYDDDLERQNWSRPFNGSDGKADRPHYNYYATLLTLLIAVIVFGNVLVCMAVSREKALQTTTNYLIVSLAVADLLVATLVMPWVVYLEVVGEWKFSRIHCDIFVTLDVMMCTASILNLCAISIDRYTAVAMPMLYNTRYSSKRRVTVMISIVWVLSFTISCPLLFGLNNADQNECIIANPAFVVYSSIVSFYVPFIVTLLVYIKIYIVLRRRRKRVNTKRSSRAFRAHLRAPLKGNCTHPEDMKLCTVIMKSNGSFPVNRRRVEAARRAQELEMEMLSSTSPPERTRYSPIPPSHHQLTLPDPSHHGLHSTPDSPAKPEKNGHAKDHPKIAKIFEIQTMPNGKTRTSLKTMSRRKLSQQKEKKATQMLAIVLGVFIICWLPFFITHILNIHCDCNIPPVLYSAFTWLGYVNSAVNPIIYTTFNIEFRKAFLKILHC

The target in this test is D(2) dopamine receptor (Homo sapiens) (UniProt P14416). Put plainly: HTS Assay for Allosteric Antagonists of the Human D2 Dopamine Receptor: Primary Screen for Antagonists. Further: 0% is about no effect. As to conditions: HEK293 TREx D2 cells, calcium flux, dopamine EC80; at 10 µM; stronger effect = higher value. The gist of the method:
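Cells plated overnight at 30 C with tetracycline; no-wash calcium dye, 30–90 min RT; 10 s baseline; compound pinned; 180 s read; EC80 dopamine added; another 180 s read.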
With `CCOc1ccc(-n2cc(-c3ccccc3)c3c(NC4CCCCC4)ncnc32)cc1`, the inhibition was 11.2%.

As to `Cc1nn(-c2ccccc2)c(OC(=O)c2ccccc2Cl)c1S(=O)(=O)c1ccccc1`, the inhibition worked out at 8.11%.

As to `COc1ccc2c(c1)c1c(c(=O)n(-c3cccc(Cl)c3)c(=O)n1CC(=O)NCC1CCCO1)n2C` (stereo not given), the inhibition worked out at 8.33%.

Consider `N#CCC(=N)N1CCN(c2cccc(Cl)c2)CC1`, for which the inhibition is active: 62.5%.

Take `CCOc1ccc(-c2nnc(SCC(=O)NCc3ccc(C)cc3)nc2-c2ccc(OCC)c(OC)c2)cc1OC`: the inhibition is -16.5%.

Regarding `CCOc1ccc(NC(=O)CSC2=Nc3ccccc3C3=NC(CCC(=O)NCc4cccs4)C(=O)N23)cc1` (stereo not given), the inhibition was -15.8%.

For the compound `Cc1ccc(CNC(=O)CCS(=O)(=O)c2ccc3c(c2)CC(C)N3C(=O)C2CC2)cc1` (stereo not given), the inhibition is -8.86%.

On to `COc1ccc(Cn2c3nc4ccccc4nc3c3c(=O)n(Cc4ccco4)cnc32)cc1`, for which the inhibition is active: 40.2%.

For `Fc1ccc(-c2csc(=Nc3cccc(C(F)(F)F)c3)n2Cc2ccc3c(c2)OCO3)cc1`, the inhibition was -0.614%.

Regarding `O=C1C(=O)N(C2CCNCC2)CCN1Cc1ccccc1`, the inhibition was determined as 14.4%.

For `Cc1cccc(C)c1NC(=O)CCCn1c(=O)c2cccn2c2ccccc21`, the inhibition turned out to be 7.85%.

For the compound `Fc1ccc(-c2cc(-c3ccccc3)c3c(n2)-c2ccccc2OC3)cc1`, the inhibition was -11.2%.

Regarding `COc1ccc(-c2nc(CCNC(=O)c3ccccc3)cs2)cc1OC`, the inhibition is -2.9%.

With `Cc1cccc(/C=N\NC(=O)c2ccc(Cl)cc2)c1O`, the inhibition is active: 30.2%.

On to `O=C(Nc1sc2c(c1C(=O)NCC1CCCO1)CCC2)c1cc(=O)c2cc(Cl)ccc2o1` (stereo not given), for which the inhibition was -5.79%.

`Cc1ccc(CCNC(=O)c2ccc3c(c2)N(Cc2ccccc2F)C(=O)c2ccccc2S3=O)cc1` (stereo not given): the inhibition was 4.58%.

Turning to `COc1cccc(NC(=O)CCCn2c(=O)c3cccn3c3cccnc32)c1`, the inhibition is 3.07%.

Turning to `CCCCCCC(C)NC(=S)Nc1cc(S(=O)(=O)N(C)C)ccc1C` (stereo not given), the inhibition was active: 92.2%.

As for `CCOC(=O)c1cc(-c2ccccc2)n(CC(=O)Nc2ccccc2OCC)c1C`, the inhibition is -7.68%.

With `Cn1nnnc1SCCCNCc1cc(Br)ccc1OCc1ccccc1F`, the inhibition is -18.8%.

`COc1cc(NS(=O)(=O)c2c(C(=O)N3CCCCC3)c(C)n(C)c2C)cc(OC)c1OC`: the inhibition was determined as 3.69%.

Take `CCC(C)c1ccccc1OCC(=O)Nc1ccc(S(=O)(=O)Nc2cc(C)on2)cc1` (stereo not given): the inhibition was -8.96%.

In the case of `CC1CCc2c(sc3nnn(CC(=O)Nc4c(C(C)C)cccc4C(C)C)c(=O)c23)C1` (stereo not given), the inhibition was determined as 2.3%.

On to `O=C(Nc1cccc2cccnc12)c1ccc(-c2cccc(Cl)c2)o1`, for which the inhibition was 11.6%.

With `COc1ccc(-c2cc3ncc(C(=O)c4cc([N+](=O)[O-])ccc4O)cn3n2)cc1`, the inhibition came out at 7.37%.

With `CCCn1c2ccccc2c2cnn(CC(=O)NCCCN(CC)c3ccccc3)c(=O)c21`, the inhibition was 8.81%.

Take `COc1cc(NC(=O)CN2C(=O)COc3ccc(S(=O)(=O)NC4CCCC4)cc32)cc(OC)c1`: the inhibition came to 8.79%.

Take `O=C(c1ccc2c(c1)N(Cc1c(F)cccc1Cl)C(=O)c1ccccc1S2)N1CCCC1`: the inhibition was -15.1%.

As for `CCc1ccc(NC(=O)c2ccc(Cn3nc(N4CCN(c5ccccc5)CC4)ccc3=O)o2)cc1`, the inhibition was found to be 6.34%.

For the compound `Cc1ccc(Cl)cc1-n1ncc2c(Nc3ccc4c(c3)OCCO4)ncnc21`, the inhibition stood at 21.5%.

For `O=C1C(NS(=O)(=O)c2cccs2)=C(N2CCOCC2)C(=O)c2ccccc21`, the inhibition was active: 38.1%.

Turning to `CC(=O)N1CCCC1c1nc2ccccc2n1Cc1ccc(F)cc1` (stereo not given), the inhibition is -5.36%.

`COc1ccc(CNC(=O)c2cc3cccc4c3n2CC(C)S4)cc1OC` (stereo not given): the inhibition was -3.05%.

For the compound `COCCCn1c(=O)c2sccc2n2c(CCCC(=O)Nc3cccc(OC)c3)nnc12`, the inhibition is -7.16%.

For the compound `Cc1ccc(CNS(=O)(=O)c2ccc3[nH]c4c(c3c2)CCCCC4)cc1`, the inhibition is -0.405%.

As for `Cc1cccc(NC(=O)C2CCCN(S(=O)(=O)c3ccc4c(c3)CCCC(=O)N4)C2)c1` (stereo not given), the inhibition is -10.9%.

For `COc1ccc(CC(=O)OCC(=O)NCc2ccco2)cc1`, the inhibition was active: 35.5%.

Take `COc1ccc(Cl)cc1NC(=O)Cn1nc(C(F)(F)F)c2c1CCCC2`: the inhibition was -9.89%.

In the case of `CCN(CC)S(=O)(=O)c1ccc(C(=O)NC2CC(=O)N(c3ccc(OC)c(OC)c3)C2)cc1` (stereo not given), the inhibition is -12.4%.

On to `CN1CCCCC1CCN1c2ccccc2Sc2ccc(S(C)=O)cc21` (stereo not given), for which the inhibition is active: 95.7%.

For `CC(=O)c1ccc(NC(=O)c2cc3sccc3n2Cc2ccc(Cl)cc2)cc1`, the inhibition came out at 8.7%.

In the case of `Cc1ccc(N(CC(=O)NCCSc2ccccc2)S(=O)(=O)c2ccc(F)cc2)cc1`, the inhibition is -1.08%.

In the case of `CCOCCCNC(=O)C(=O)Nc1c2c(nn1-c1ccccc1)CSC2`, the inhibition is -13.1%.

Take `O=C(COc1ccc(Cl)cc1)NCC(c1ccco1)S(=O)(=O)c1ccc(F)cc1` (stereo not given): the inhibition is 2.15%.

Turning to `COc1ccc2c(C)c(CCC(=O)NCc3ccccc3OC)c(=O)oc2c1`, the inhibition came to 4.34%.

As for `COc1ccc(C)cc1-n1nnc(S(=O)(=O)c2ccc(C)cc2)c1C`, the inhibition amounted to 9.99%.

On to `O=C(Cn1c(-c2cccs2)cc2cc(F)ccc21)N1CCN(c2ccccc2)CC1`, for which the inhibition stood at 1.7%.

As for `COc1ccc(CNc2oc(/C=C/c3cc(OC)c(OC)c(OC)c3)nc2C#N)cc1`, the inhibition was 27.2%.

Take `CCOc1ccc(Nc2oc(/C=C/c3ccc(OC)c(OC)c3)nc2C#N)cc1`: the inhibition worked out at 0.001%.

As to `Cc1cccn2c(=O)c(C(=O)NC(C)c3ccccc3)c(O)nc12` (stereo not given), the inhibition is 4.09%.

Regarding `O=S(=O)(c1ccc(OCC(O)CN2CCN(c3ccccc3)CC2)cc1)N1CCOCC1` (stereo not given), the inhibition was active: 95.9%.

As to `COc1cccc(Nc2nc3c(S(=O)(=O)c4cc(C)ccc4C)nnn3c3ccsc23)c1`, the inhibition is -13.9%.

For the compound `Cc1ccc(NC(=O)N2CCN(Cc3nc4ccc(C)cc4o3)CC2)cc1`, the inhibition was found to be 8.86%.

Take `O=C(CN1c2ccc(Br)cc2-c2ccccc2S1(=O)=O)N1CCCCC1`: the inhibition is -9.65%.

On to `COc1cc(/C=N/NC(=O)c2cccc3ccccc23)cc(OC)c1OC`, for which the inhibition was active: 30.4%.

With `CC(=O)Nc1c(C)nn(-c2ccccc2)c1N1CCC(C(=O)Nc2ccccc2C(F)(F)F)CC1`, the inhibition amounted to 7.99%.

On to `CCOC(=O)N1CCN(S(=O)(=O)N2CCCC(C(=O)NCc3cc(Br)ccc3OC)C2)CC1` (stereo not given), for which the inhibition was -28%.

`Cc1cc(=O)c2cc(C(=O)Nc3ccc(F)cc3)ccc2[nH]1`: the inhibition was determined as 14.4%.

With `CC(C)c1ccc2c(c1)c(SC(C)(C)C)c(CC(C)(C)C(=O)O)n2Cc1ccc(Cl)cc1`, the inhibition is active: 47.1%.

Regarding `Cc1cc(C)c(NC(=O)CSC2=Nc3ccccc3C3=NC(CC(=O)NCc4cccs4)C(=O)N23)c(C)c1` (stereo not given), the inhibition turned out to be 0.407%.

By inhibition is commonly meant the drop in the measured response relative to a control, in per cent.

(Values after PubChem BioAssay AID485344 (National Center for Advancing Translational Sciences (NCATS), 2010).)
